The results in this text go back to PubChem BioAssay AID1347073 (National Center for Advancing Translational Sciences (NCATS), 2019).

Among all 45,000 compounds or so, about 200 (0.44%) were called active. Roughly 7% stayed inconclusive and do not appear here. The call rests on the fitted dose curve; in most records, active means well fitted activation curve with a large enough effect; inconclusive means small, poorly fitted or top-dose-only effect; inactive means no such curve, though single readings can be large or run the other way. Some of the results follow.

A short description of the assay: qHTS of TDP-43 Inhibitors: NCGC Sytravon Library Screen. Further: 0% is about no effect; nearly all actives have a fitted effect of over 55% in size. As to conditions: yeast TDP-43 toxicity rescue, BacTiter-Glo growth, 24 h; series mostly up to 46.1 µM; growth rescue (activation): at the top concentration. In outline: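 TDP-43-expressing yeast, pregrown in raffinose, seeded at OD600 0.02 in galactose medium with compound for 24 hr at 30 deg C. Growth read by BacTiter-Glo luminescence, so rescue of toxicity appears as activation.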
(In general: Quantitative high-throughput screening tests each substance at several concentrations.)
Consider `Cc1[nH]cc(Br)c(=O)c1Oc1ncc(C(F)(F)F)cc1Cl`, for which the “growth rescue (activation)” value was inactive: -1.41%. Under `COc1cc2c(cc1NC(=O)/C=C/c1cc(OC)c(OC)c(OC)c1)oc1ccccc12` stands inactive: 17.2%; under `CCc1ccc(C(=O)COC(=O)c2ccc(Cl)nc2)cc1`, inactive: -5.53%; under `C=CCn1c(SCC(=O)NC2CCCc3ccccc32)nnc1-c1ccncc1` (centres undefined), inactive: 10.9%. As for `COc1ccc(CCNC(=O)CN(c2cc(OC)ccc2OC)S(=O)(=O)c2ccccc2)cc1`, the “growth rescue (activation)” value was inactive: 1.79%. Under `CCC(C)N=C1CC(C)(C)CC(=O)/C1=C(/O)Cc1ccccc1` (centres undefined) stands inactive: 6.81%. In the case of `CC(=O)OCC(=O)N1CCN(c2ccc([N+](=O)[O-])cc2)CC1` it was inactive: 21.2%; in that of `CC(=O)Oc1ccc2c(=O)c(Oc3ccccc3)c(C)oc2c1OC(C)=O`, inactive: 1.4%; in that of `CC#CC[N+](C)(C)CCCCCC`, inactive: 13.5%. For `COc1ccc(C)cc1NC(=O)c1sc2nc(C)nc(N3CCOCC3)c2c1C`, the “growth rescue (activation)” value is inactive: 8.23%. Under `CC(CNC(=O)c1ccco1)NC(=O)c1ccco1` (centres undefined) stands inactive: 2.05%. Under `COc1ccc(CCNC(=O)C2CCN(S(=O)(=O)c3cccs3)CC2)cc1OC` stands inactive: 6.23%.

On to `O=C(NS(=O)(=O)Oc1ccccc1F)OC[C@@H]1CCCN2CCCCC12` (some centres undefined), for which the “growth rescue (activation)” value is inactive: -29.2%.

With `COc1ccc(NC(=O)CCCN2C(=O)C3CC=CCC3C2=O)cc1` (centres undefined), the “growth rescue (activation)” value was inactive: 11.8%. In the case of `OCCCNc1nc(-c2ccccc2)c2cc(Br)ccc2n1` it was inactive: 13.5%; in that of `CCC1Oc2ccccc2N(CC(=O)NCC2CCCO2)C1=O` (centres undefined), inactive: 5.41%.

Turning to `O=C(N/C(=C/c1ccc(F)cc1)C(=O)N1CCCC1)c1ccccc1`, the “growth rescue (activation)” value was inactive: 6.97%. For `O=C(COc1ccccc1Cl)Nc1ccc(S(=O)(=O)N2CCOCC2)cc1`, the “growth rescue (activation)” value is inactive: 6.55%.

For `Cc1ccc(C(C(=O)NC2CCCC2)N(C(=O)c2csnn2)c2cccc(F)c2)o1` (centres undefined), the “growth rescue (activation)” value was inactive: 1.94%.

Take `COc1cccc(Cn2cc(N)cn2)c1`: the “growth rescue (activation)” value was inactive: 3.04%. Take `CCOc1cc(CNn2cnnc2SCC(=O)NC(C)(C)C)ccc1OCC(=O)NC(C)(C)C`: the “growth rescue (activation)” value is inactive: 14.1%. Under `NC(=S)N=Nc1c(O)[nH]c2cc(F)c(F)cc12` stands inactive: -17.7%; under `CC#CC(=O)N1CCC(CCc2ccccc2)(C(=O)OCC)CC1`, inactive: 13.5%; under `COc1cc(OC)c(OC)cc1CN1CCCC(C(=O)c2sccc2C)C1` (centres undefined), inactive: 11.5%. `CCS(=O)(=O)N1CCN(c2ccc(S(=O)(=O)N3CCOCC3)cc2)CC1`: the “growth rescue (activation)” value was inactive: 4.2%. In the case of `Cc1c(O)ccc2c(CN3CCN(C/C=C/c4ccccc4)CC3)cc(=O)oc12` it was inactive: 4.45%; in that of `Cc1ccc(S(=O)(=O)N(C)C)cc1NC(=O)CCCNC(=O)c1ccc(Cl)cc1`, inactive: 9.45%.

On to `CS(=O)(=O)c1ccc(C(=O)N(Cc2ccccc2)c2ccccc2)cc1`, for which the “growth rescue (activation)” value is inactive: -3.71%. In the case of `COc1ccc2c(CC(=O)Nc3ccccc3OC)coc2c1` it was inactive: 13.2%. Under `CCOc1cc(CNCC(C)C)c(Cl)cc1OCC(=O)Nc1ccccc1` stands inactive: 7.99%; under `CC(=O)Nc1cncc(-c2cccc(C(=O)NCCN(C)C)c2)n1`, inactive: 2.36%; under `O=C(OCCCN=C1NS(=O)(=O)c2ccccc21)c1cccs1`, inactive: 3.69%. Under `O=C(O)c1ccc(Cl)c(S(=O)(=O)Nc2ccc(S(=O)(=O)Nc3cccc(Cl)c3)cc2)c1` stands inactive: -18%; under `COC(=O)c1cc(C(=O)OCC(=O)N2CCCCC2)cc([N+](=O)[O-])c1`, inactive: 3.65%. With `CC1(C)Cc2ccccc2C2=C(C(=O)N3CCCCCC3)C(=O)C(=O)N21`, the “growth rescue (activation)” value was inactive: -1.66%. In the case of `COc1ccccc1N1CCN(C2CCN(S(=O)(=O)c3ccc(C)cc3)CC2)CC1` it was inactive: -26.6%.

`O=C(Nn1cnnc1)c1cc(-c2ccccn2)nc2ccccc12`: the “growth rescue (activation)” value was inactive: -2.7%. In the case of `O=C(NC1CCN(C(=O)Nc2ccccc2Cl)CC1)c1cccc(F)c1`, the “growth rescue (activation)” value was inactive: 16.3%.

With `COc1ccc(NC(=O)CCCCCn2nnc3ccccc3c2=O)cc1`, the “growth rescue (activation)” value was inactive: -33.8%. Take `Cc1ccc(S(=O)(=O)CCC(=O)Nc2ccccc2C)cc1`: the “growth rescue (activation)” value is inactive: 16%. `O=c1oc2ccccc2n1Cc1ccccc1`: the “growth rescue (activation)” value was inactive: 9.09%. Under `COc1ccc(CC(=O)Nc2c3c(nn2-c2cccc(C)c2C)CS(=O)C3)cc1OC` (centres undefined) stands inactive: 31.2%.

On to `COc1ccc2nc(Cl)c(C#N)cc2c1`, for which the “growth rescue (activation)” value is inactive: 25.1%. Under `FC(F)(F)c1cccc(-c2nn[nH]n2)c1` stands inactive: -2.1%; under `Oc1ccc(Br)cc1/C=N/Nc1nc(N2CCCCC2)nc(N2CCOCC2)n1`, inactive: -1.21%; under `Cc1ccc(C)c(C(=O)OCC(=O)N(C)c2ccccc2)c1`, inactive: 28.7%. Under `COc1cc2c(cc1NC(=O)c1cc(-c3ccccn3)nc3ccccc13)oc1ccccc12` stands inactive: 1.34%. For the molecule `CC1CN(S(=O)(=O)c2cccc(C(=O)NCCc3ccc(S(N)(=O)=O)cc3)c2)CC(C)O1` (centres undefined), the “growth rescue (activation)” value is inactive: 0.0184%. Under `COCCNC(=O)C1(C)CCCN(C(=O)c2cccnc2SC)C1` (centres undefined) stands inactive: -0.396%. In the case of `O=C(CCc1ccccc1)N1N=C(c2ccncc2)CC1(O)C(F)(F)F` (centres undefined) it was inactive: -7.22%; in that of `CN(C)S(=O)(=O)N1CCN(c2ccc([N+](=O)[O-])c(N3CCOCC3)c2)CC1`, inactive: 7.94%.

As for `Cc1nc2ccc(N3C(=O)CCC3=O)cc2[nH]1`, the “growth rescue (activation)” value was inactive: 10.4%. In the case of `CC(C)=CCn1c2ccc(NC(=O)NCc3ccc(F)cc3)cc2c(=O)n1C` it was inactive: 12.4%.

As for `Cc1ccc(NC(=O)CSc2nnc(C)n2CC2CCCO2)cc1` (centres undefined), the “growth rescue (activation)” value is inactive: -10.8%. In the case of `CCOC(=O)C1CCN(Cc2cc(=O)oc3cc(C)c(Cl)cc23)CC1` it was inactive: -1.83%. In the case of `CC(C)C(C)NC(=O)COc1ccc(S(=O)(=O)N2CCOCC2)cc1[N+](=O)[O-]` (centres undefined) it was inactive: -4.84%; in that of `CN(C)S(=O)(=O)c1cccc(N=C2SCCN2Cc2ccccc2)c1`, inactive: 29.4%. Turning to `O=C(CN1CCCC1)Nc1nc(-c2ccc3c(c2)CCN3C(=O)c2ccccc2F)cs1`, the “growth rescue (activation)” value was inactive: -25.3%. Under `COC(=O)COc1ccc2c(=O)c(-c3ccccc3)coc2c1` stands inactive: 9.13%; under `CCOC(=O)CC(NS(=O)(=O)Cc1ccccc1)c1ccc(C)cc1` (centres undefined), inactive: 8.07%. Take `Cn1cc(C(=O)C(=O)N2CCCCC2)c2ccccc21`: the “growth rescue (activation)” value was inactive: 10.3%. In the case of `CCCOc1ccc(-c2c(C(=O)N/N=C/c3ccc(C)cc3)nnn2-c2nonc2N)cc1` it was inactive: 1.93%; in that of `O=C(NC(Cc1ccccc1)c1nc2ccccc2[nH]1)c1cccc([N+](=O)[O-])c1` (centres undefined), inactive: 8.69%. Regarding `COc1ccc(CN(C)CC(O)COC(c2ccccc2)c2ccccc2)c(OC)c1OC` (centres undefined), the “growth rescue (activation)” value is inactive: 4.86%. In the case of `COc1ccc(S(=O)(=O)NCC2CCCO2)cc1NC(=O)c1ccccc1F` (centres undefined) it was inactive: -8.89%; in that of `O=C(CC12CC3CC(CC(C3)C1)C2)NC(=S)NCc1ccccc1`, inactive: 20.2%. In the case of `COc1ccc(Cl)cc1Nc1nc(C)nc2c1nnn2Cc1ccccc1` it was inactive: 8.31%.

As to `O=C(CSc1ccc(Cl)cc1)Nc1ccccc1Oc1ccccc1`, the “growth rescue (activation)” value is inactive: -36.7%.

Take `COc1ccc(NC(=O)c2cc(C3CCCCN3C(=O)C3CC3)on2)c(C)c1` (centres undefined): the “growth rescue (activation)” value is inactive: -0.593%.
